# Paper PMC4336329 (PLoS ONE, 2015)
# Out of some 310,000 compounds screened, about 14,000 (4.5%) showed an effect of 50% or more. The effect is printed as a negative number. Some of the results follow.
# Target: human ether-à-go-go-related gene (hERG) potassium channel (human, UniProt Q12809)
# Test: primary screen, population patch clamp on CHO cells stably expressing hERG
# 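Also: peak tail current of the secondary pulse compared with the same well before compound.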
# Chain of human ether-à-go-go-related gene (hERG) potassium channel (Q12809 whole entry, looked up): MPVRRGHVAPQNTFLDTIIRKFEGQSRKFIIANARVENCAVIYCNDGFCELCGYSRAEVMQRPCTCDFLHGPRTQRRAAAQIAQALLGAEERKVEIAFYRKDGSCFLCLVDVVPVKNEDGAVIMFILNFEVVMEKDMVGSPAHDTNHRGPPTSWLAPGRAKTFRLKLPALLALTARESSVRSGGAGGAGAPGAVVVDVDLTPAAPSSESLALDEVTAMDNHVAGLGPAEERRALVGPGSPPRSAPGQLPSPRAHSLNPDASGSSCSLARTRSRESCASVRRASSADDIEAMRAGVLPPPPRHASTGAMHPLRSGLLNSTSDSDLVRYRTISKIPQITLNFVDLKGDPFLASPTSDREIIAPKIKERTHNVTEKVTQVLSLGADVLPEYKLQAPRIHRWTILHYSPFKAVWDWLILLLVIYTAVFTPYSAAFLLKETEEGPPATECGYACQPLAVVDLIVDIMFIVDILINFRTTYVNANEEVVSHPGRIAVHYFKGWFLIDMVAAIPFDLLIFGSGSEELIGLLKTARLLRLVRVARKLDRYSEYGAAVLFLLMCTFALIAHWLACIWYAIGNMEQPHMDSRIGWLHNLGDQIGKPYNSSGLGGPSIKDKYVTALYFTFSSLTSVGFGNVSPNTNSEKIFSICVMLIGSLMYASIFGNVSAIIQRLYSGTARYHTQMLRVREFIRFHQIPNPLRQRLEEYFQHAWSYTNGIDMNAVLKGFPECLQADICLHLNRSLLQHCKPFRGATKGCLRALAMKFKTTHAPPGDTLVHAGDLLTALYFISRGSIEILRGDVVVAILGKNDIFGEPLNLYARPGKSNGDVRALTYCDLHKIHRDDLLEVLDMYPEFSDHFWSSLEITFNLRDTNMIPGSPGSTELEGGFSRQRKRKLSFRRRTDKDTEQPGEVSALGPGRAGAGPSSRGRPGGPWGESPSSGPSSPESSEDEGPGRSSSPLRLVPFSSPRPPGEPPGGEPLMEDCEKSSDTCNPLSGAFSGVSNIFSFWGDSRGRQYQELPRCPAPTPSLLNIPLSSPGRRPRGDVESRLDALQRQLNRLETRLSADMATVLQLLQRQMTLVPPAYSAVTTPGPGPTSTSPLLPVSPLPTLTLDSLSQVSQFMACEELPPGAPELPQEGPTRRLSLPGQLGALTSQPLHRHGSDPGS
row,Structure (SMILES),"hERG current change (%, negative = inhibition) at 10uM [%]"
1,O=C(CCc1c[nH]c2ccccc12)NCC1COc2ccccc2O1 (stereo not drawn),3
2,COCCNC(=O)CC(NS(=O)(=O)c1ccc(NC(C)=O)cc1)C(C)C (stereo not drawn),-4.3
3,Cc1cc(Nc2ccc(Br)cc2F)n2nc(C)nc2n1,-21.5
4,CCc1ccccc1NC(=O)C1CCCN(S(=O)(=O)c2c(C)noc2C)C1 (stereo not drawn),19.9
5,Cc1cc(Oc2ccccc2)nc(SCC(=O)Nc2ccc(Cl)cc2Cl)n1,-2.17
6,CCOc1ccc(N2CC(C(=O)Nc3nnc(Cc4ccccc4)s3)CC2=O)cc1 (stereo not drawn),4.73
7,C#CCN(C(=O)c1cc(COc2cccc(C(F)(F)F)c2)on1)C1CCCCC1,6.88
8,CCN(CC)CCCN1C=C2C(=O)C(C)(OC(=O)CCc3ccccc3)C(=O)C=C2C=C1c1ccc(C#N)cc1 (stereo not drawn),-37.6
9,COCCNC(=S)N/N=C(\C)c1cccc(C(F)(F)F)c1,18.9
10,Cc1ccc(NC(=O)C(c2ccccc2)N2CCN(CC(=O)NC3CC3)CC2)cc1Cl (stereo not drawn),-46.7
11,O=C(NCCN1CCOCC1)c1ccc2c(c1)N(Cc1ccc(F)cc1)C(=O)CS2,0.414
12,CCCc1cc(C(=O)N/N=C/c2cccn2C)cs1,-5.17
13,CCN(CC)CCC(=O)NC(C)(C)Cc1ccc(O)cc1,-1.6
14,Cc1cc(C)nc(SCC(=O)N/N=C/c2ccc3c(c2)OCO3)n1,8.05
15,CCc1ccc2[nH]c3nc(C)cc(C)c3c(=O)c2c1,6.85
16,CC(C)=C1SC(N2CCN(c3ccc(C)cc3)CC2)=NC1=O,-8.21
17,Cc1cnc(NC(=O)CN2C(=O)C3CC=CCC3C2=O)s1 (stereo not drawn),37.7
18,CCn1c(=O)c(C(=O)CN2CCN(S(=O)(=O)c3cc(C)ccc3C)CC2)c(N)n(Cc2ccccc2)c1=O,7.11
19,NC(=O)c1ccccc1NC(=O)COc1ccc2c(c1)OCO2,4.47
20,CC[n+]1c(/C=C/N(C)c2ccccc2)sc2ccc(Cl)cc21.[O-][Cl+3]([O-])([O-])[O-],-62.6
21,CSc1ccc(/C=N/N2CCN(c3ccccc3)CC2)cc1,-3.15
22,CCOc1ccc(NC(=O)c2ccc(-c3csc(C)n3)cc2)cc1,16.5
23,O=C(CCc1nc2sc3c(c2c(=O)[nH]1)CCCC3)NCCc1ccccc1,6.82
24,COc1ccc(S(=O)(=O)N2CCCCCC2)cc1NC(=O)c1ccccc1,10.5
